From patent publication US20230149407A1, “Methods of Treating Coronavirus Disease 2019” (priority 2020, published 2023)

Test system: Covid-19 pneumonia

For `C[C@@H]1CCN(C(=O)CC#N)C[C@@H]1N(C)c1ncnc2[nH]ccc12` [tofacitinib, 3-((3R,4R)-4-Methyl-3-(methyl(7H-pyrrolo[2,3-d]pyrimidin-4-yl)amino)piperidin-1-yl)-3-oxopropanenitrile], the “Cure (resolution of fever, cough, and need for ventilatory or oxygen support)” value (N = 144) was 134 (93.1), the “Death or respiratory failure at day 28” value (N = 144) was 6 (4.2) and the “Mortality until day 28 - no. (%)” value (N = 144) was 4 (2.8) no. (%). For the same compound, the “Respiratory failure until day 28 - no. (%)” value (N = 144) was 22 (15.3) no. (%), the “Status of being alive and not hospitalized (categories 7 to 8 of the ordinal scale) at day 14” value (N = 144) was 121 (84.0) and the “Status of being alive and not hospitalized (categories 7 to 8 of the ordinal scale) at day 28” value (N = 144) was 134 (93.1). For the same compound, the “Status of being alive and not using mechanical ventilation or ECMO (categories 3 to 8 of the ordinal scale) at day 14” value (N = 144) was 135 (93.8), the “Status of being alive and not using mechanical ventilation or ECMO (categories 3 to 8 of the ordinal scale) at day 28” value (N = 144) was 139 (96.5) and the “Status of being hospitalized, requiring supplemental oxygen (categories 1 to 4 of the ordinal scale) at day 28” value (N = 144) was 10 (6.9). For the same compound, the “Status of being in the ICU or on ventilatory support at day 28” value (N = 144) was 4 (2.9), the “NIAID ordinal scale at day 14, Distribution - no (%)” value (category 1) was 2 (1.4) no (%) and the “NIAID ordinal scale at day 28, Distribution - no (%)” value (category 1) was 4 (2.8) no (%). The “NIAID ordinal scale at day 14, Distribution - no (%)” value (category 2) was 7 (4.9) no (%), the “NIAID ordinal scale at day 28, Distribution - no (%)” value (category 2) was 1 (0.7) no (%) and the “NIAID ordinal scale at day 14, Distribution - no (%)” value (category 3) was 1 (0.7) no (%). For the same compound, the “NIAID ordinal scale at day 28, Distribution - no (%)” value (category 3) was 1 (0.7) no (%), the “NIAID ordinal scale at day 14, Distribution - no (%)” value (category 4) was 7 (4.9) no (%) and the “NIAID ordinal scale at day 28, Distribution - no (%)” value (category 4) was 4 (2.8) no (%). The “NIAID ordinal scale at day 14, Distribution - no (%)” value (category 5) was 5 (3.5) no (%), the “NIAID ordinal scale at day 28, Distribution - no (%)” value (category 5) was 0 (0) no (%) and the “NIAID ordinal scale at day 14, Distribution - no (%)” value (category 6) was 1 (0.7) no (%). The “NIAID ordinal scale at day 28, Distribution - no (%)” value (category 6) was 0 (0) no (%), the “NIAID ordinal scale at day 14, Distribution - no (%)” value (category 7) was 11 (7.6) no (%) and the “NIAID ordinal scale at day 28, Distribution - no (%)” value (category 7) was 5 (3.5) no (%). The “NIAID ordinal scale at day 14, Distribution - no (%)” value (category 8) was 110 (76.4) no (%), the “NIAID ordinal scale at day 28, Distribution - no (%)” value (category 8) was 129 (89.6) no (%) and the “Death or respiratory failure until day 28 - no. (%)” value (primary outcome, tofacitinib 10 mg twice daily up to 14 days, N = 144) was 26 (18.1) no. (%).

Like-named read-outs stand apart in the source and are kept apart here.
